The record followed here is PubChem BioAssay AID651582 (Sanford-Burnham Center for Chemical Genomics, 2012).

SMILES strings stand for the structures. The list shows a part of the results. These are further read-outs of the screen, such as a control signal, another cell line or another target. No call is given for them. Compounds called inactive in the main read-out are mostly missing here.

This assay can be described thus: inhibitors of triacylglycerol accumulation, primary screen, cell-based, uHTS, fluorescence, H9c2 (AID 651582). The conditions noted are these: H9c2 cells, Nile Red lipid (TAG) fluorescence; measured here:; at 12.5 µM; cells loaded with 200 µM oleic acid.
In the case of `COc1ccc2c(c1)[nH]c1c(=O)n(/N=C/C3C(C)C=C(C)CC3C)c(=O)[nH]c12` (configuration not stated), the DAPI nuclei signal change (viability), lower = more cytotoxic is -46.7%.

Turning to `COc1ccc2c(c1)c(/C=N/Nc1nc3ccccc3[nH]1)c(C)n2C`, the DAPI nuclei signal change (viability), lower = more cytotoxic is -10.3%.

For the molecule `O=C(c1cc(-c2ccncc2)nc2c(Cl)cccc12)N1CCN(c2ccccc2F)CC1`, the DAPI nuclei signal change (viability), lower = more cytotoxic is -24.5%.

As for `COc1cc2c(c(OC)c1OC)-c1ccc(SC)c(=O)cc1C(NC=O)CC2` (configuration not stated), the DAPI nuclei signal change (viability), lower = more cytotoxic is -39.5%.

For the molecule `CC(C)[C@@H]1CC[C@@H](C)C[C@H]1OC(=O)C[n+]1cc(-c2ccc(Cl)cc2)n2c1CCCCC2`, the DAPI nuclei signal change (viability), lower = more cytotoxic was -26%.

As for `CCOc1ccccc1NC(=O)c1cccc(NC(=O)c2ccco2)c1`, the DAPI nuclei signal change (viability), lower = more cytotoxic is -17.1%.

Regarding `COCCCNC(=O)C(=O)Nc1ccc2c(c1)N(S(=O)(=O)c1cccs1)CCC2`, the DAPI nuclei signal change (viability), lower = more cytotoxic was -22.8%.

Take `CCOc1cc2c(cc1O)CCC1C2CCC2(C)C(O)CCC12` (configuration not stated): the DAPI nuclei signal change (viability), lower = more cytotoxic was -26.2%.

On to `Cc1ccc(/C=N/NC(=O)Cc2c[nH]c3ccccc23)c(C)c1`, for which the DAPI nuclei signal change (viability), lower = more cytotoxic was -11.2%.

Turning to `COc1ccccc1-c1cc(C(F)(F)F)nc(S(=O)(=O)CCCC(=O)NC(C)C)n1`, the DAPI nuclei signal change (viability), lower = more cytotoxic was -48.8%.

With `CCN(CC)CC(C)(C)C(=O)/C=C/c1ccc(/C=C/C(=O)C(C)(C)CN(CC)CC)cc1`, the DAPI nuclei signal change (viability), lower = more cytotoxic was -32%.

In the case of `CCC(CC)NCc1ccc2c(c1)c1ccccc1n2CC`, the DAPI nuclei signal change (viability), lower = more cytotoxic is -1.03%.

`O=[N+]([O-])c1ccc(/C=N/Nc2ncccc2[N+](=O)[O-])s1`: the DAPI nuclei signal change (viability), lower = more cytotoxic was -26.9%.

Take `COc1ccc(C(C(=O)NC(C)(C)C)N(Cc2cccs2)C(=O)CCC(=O)Nc2cc(C)on2)cc1` (configuration not stated): the DAPI nuclei signal change (viability), lower = more cytotoxic was -2.74%.

Take `Cc1cc(NC(=O)CSc2nc(-c3cccs3)nc3ccccc23)no1`: the DAPI nuclei signal change (viability), lower = more cytotoxic is -38.6%.

Regarding `COc1ccc(NC(=O)Cn2c(=O)n(-c3ccc(CC(=O)NCc4ccco4)cc3)c(=O)c3ccccc32)cc1`, the DAPI nuclei signal change (viability), lower = more cytotoxic is -33.9%.

In the case of `Cc1ccc(NC(=O)C(=Cc2ccc(C(=O)O)cc2)C(=O)Nc2ccc(C)cc2C)c(C)c1`, the DAPI nuclei signal change (viability), lower = more cytotoxic is -22.1%.

Consider `O=C(CSc1cccc2cccnc12)Nc1ccc(S(=O)(=O)N2CCOCC2)cc1`, for which the DAPI nuclei signal change (viability), lower = more cytotoxic is -46.3%.

In the case of `Clc1cccc(Nc2nc(-c3ccncc3)cs2)c1`, the DAPI nuclei signal change (viability), lower = more cytotoxic was -37.7%.

On to `COc1ccc(Cn2c(SCc3cc(C)ccc3C)nc3cc(OC)c(OC)cc3c2=N)cc1`, for which the DAPI nuclei signal change (viability), lower = more cytotoxic is -15.8%.

Take `Cc1ccc(CN(C(=O)c2csnn2)C(C(=O)NC2CCCC2)c2ccc(C)o2)cc1` (configuration not stated): the DAPI nuclei signal change (viability), lower = more cytotoxic came to 0.747%.

As to `Cc1cc(C)nc(S/C=C/C(=O)c2ccccc2F)n1`, the DAPI nuclei signal change (viability), lower = more cytotoxic was -47.6%.

For the molecule `O=C(N/N=C/c1ccc(Cl)cc1)c1n[nH]c2c1CCCC2`, the DAPI nuclei signal change (viability), lower = more cytotoxic is -29.7%.

On to `c1ccc(N(c2ccccc2)c2nc(N3CCCC3)nc(-n3ccnc3)n2)cc1`, for which the DAPI nuclei signal change (viability), lower = more cytotoxic was 4.96%.

Consider `Cc1cc(NC(=O)CSc2nc3ccccc3c(=O)n2C2CCCC2)no1`, for which the DAPI nuclei signal change (viability), lower = more cytotoxic was -38.1%.

Regarding `O=[N+]([O-])c1ccc(Nc2nc(NC3CCCCC3)nc(N3CCCC3)n2)cc1`, the DAPI nuclei signal change (viability), lower = more cytotoxic was -14.4%.

Consider `O=C(c1ccc(Br)cc1)c1cc([N+](=O)[O-])ccc1N1CCCCC1`, for which the DAPI nuclei signal change (viability), lower = more cytotoxic was -25.1%.

For `COc1ccc(NC(=O)/C(Cl)=C(/Cl)S(=O)Cc2ccccc2)cn1` (configuration not stated), the DAPI nuclei signal change (viability), lower = more cytotoxic is -48.5%.

Regarding `COc1ccc(NC(=O)/C(Cl)=C(/Cl)S(=O)Cc2ccc(Cl)cc2)cn1` (configuration not stated), the DAPI nuclei signal change (viability), lower = more cytotoxic is -37.5%.

As to `O=C(COc1ccccc1-c1ccccc1)N/N=C/c1cccc2ccccc12`, the DAPI nuclei signal change (viability), lower = more cytotoxic is -35.2%.

Regarding `Cc1cccc2cc(C#N)c(SCC(=O)NNC(=O)Cc3ccccc3)nc12`, the DAPI nuclei signal change (viability), lower = more cytotoxic was -33%.

As to `COc1cc(/C=C2/NC(=O)N(Cc3ccccc3F)C2=O)ccc1O`, the DAPI nuclei signal change (viability), lower = more cytotoxic was -25.4%.

`CN(C)CCn1c2ccccc2c2nc3ccc([N+](=O)[O-])cc3cc21`: the DAPI nuclei signal change (viability), lower = more cytotoxic is -35.8%.

As to `COc1ccc(C[C@H]2CN3C(=NC[C@@H]3Cc3ccc(O)cc3)N2C[C@H](C)NC(=O)CCC2CCCCC2)cc1`, the DAPI nuclei signal change (viability), lower = more cytotoxic was -22%.

Turning to `Cc1ccc(-n2nc(C(=O)NCc3ccc(C)o3)c3c4ccccc4n(C)c3c2=O)cc1`, the DAPI nuclei signal change (viability), lower = more cytotoxic was -0.65%.

Consider `CCCCSc1nnc(-c2ccc(NC(=O)CCc3ccccc3)cc2)n1C`, for which the DAPI nuclei signal change (viability), lower = more cytotoxic worked out at 4.73%.

In the case of `CC(C)(C)NCCC(O)c1cc(C(F)(F)F)nc2c(C(F)(F)F)cccc12` (configuration not stated), the DAPI nuclei signal change (viability), lower = more cytotoxic is -18.2%.

As for `CCc1nc(C)c(C(=O)N2CCCC(C(=O)Nc3cccc(-c4cccc(C)c4)c3)C2)o1` (configuration not stated), the DAPI nuclei signal change (viability), lower = more cytotoxic worked out at 4.2%.

On to `COc1ccc2cc3cc(C(=O)Nc4ccccc4N4CCN(C)CC4)oc3nc2c1`, for which the DAPI nuclei signal change (viability), lower = more cytotoxic was 10.7%.

With `COc1ccc(-c2c(C#N)c(N)nc(Sc3ccc(Cl)cc3)c2C#N)cc1`, the DAPI nuclei signal change (viability), lower = more cytotoxic was -39.8%.

As for `CCCSc1nc(SCC(=O)NCc2ccccc2)c2c3c(sc2n1)COC(C)(CC)C3` (configuration not stated), the DAPI nuclei signal change (viability), lower = more cytotoxic is -8.52%.

`CCn1ncc(/C=N/N=C2\CCC3C4CCc5cc(O)ccc5C4CCC23C)c1C` (configuration not stated): the DAPI nuclei signal change (viability), lower = more cytotoxic was -26.3%.

With `O=C(CCl)N=c1sccn1Cc1ccccc1Cl`, the DAPI nuclei signal change (viability), lower = more cytotoxic is -28.2%.

As to `CC(C)c1ccc(C2C3=C(COC3=O)Nc3cc4c(cc32)OCO4)cc1` (configuration not stated), the DAPI nuclei signal change (viability), lower = more cytotoxic was -30.5%.

On to `Cc1ccc(S(=O)(=O)NC2=C(N3CCN(c4ccccc4F)CC3)C(=O)c3ccccc3C2=O)cc1`, for which the DAPI nuclei signal change (viability), lower = more cytotoxic was -14.4%.

Regarding `COc1ccc(C(=O)N/N=C/c2cc(Br)ccc2O)cc1OC`, the DAPI nuclei signal change (viability), lower = more cytotoxic is -18.5%.

As to `CCOc1ccc(CCNC(=O)CN(C)S(=O)(=O)c2cccc3nsnc23)cc1OCC`, the DAPI nuclei signal change (viability), lower = more cytotoxic was -9.28%.
